# Experimental data published in US20170253656A1 (SUTRO BIOPHARMA, published 2017).
# T1: hu-CD74 antigen (R&D SYSTEMS catalog #3590-CD-050) (human, UniProt P04233-2 73-232, limits assumed)
# T1 construct: Bought antigen; also called rhCD74; human CD74
# T1 sequence (looked up): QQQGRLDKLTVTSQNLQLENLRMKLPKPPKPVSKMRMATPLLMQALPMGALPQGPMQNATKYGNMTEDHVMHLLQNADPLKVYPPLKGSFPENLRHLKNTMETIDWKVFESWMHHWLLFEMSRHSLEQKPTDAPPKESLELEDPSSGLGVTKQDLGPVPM
# B1: SP-007377, 1251-B08-gm_1337_A09-gm ScFvFc (Fc fusion)
# chain: QVQLVESGGGVVQPGRSLRLSCAASGFNFSDYGMHWVRQAPGKGLEWVAVIWYDGSISYYADSVKGRFTISRDNSKNTLYLQMNSLRAEDTAVYYCARGGTVEHGAVYGTDVWGQGTTVTVSSGGGGSGGGGSGGGGSDIQMTQSPSSVSASVGDRVTITCRASQGIGSWLAWYQQKPGKAPKLLIYAADRLQSGVPSRFSGSGSGTDFTLTISSLQPEDFATYYCQQYHTYPLTFGGGTKVEIKAAGSDQ[human IgG1 Fc with changes omitted]GSGDYKDDDDKGSGHHHHHH
# notes: scFv-Fc; also called Anti-CD74 scFv-Fc (1251-B08-gm_1337-A09-gm); 1251-B08-g_1337-A09-g scFv-Fc
# Target: T1, hu-CD74 antigen (R&D SYSTEMS catalog …)
# Experiment: SPR (Biacore), scFv-Fc captured on anti-human Fc, human CD74 analyte, 1:1 model
# Protocol: Purified ScFv-Fc is captured on an anti-human Fc surface at a concentration of 10 μg/mL, and different concentrations of antigen (20 nM, 10 nM, 5 nM and 0 nM of human CD74, R&D Systems) are passed over the chip surface to which the ScFv-Fc is bound. Data is fit to a 1:1 binding model using BIACORE evaluation software.
binder,measurement,value
B1,Kd,0.354 nM
same,koff,0.00012 s⁻¹
same,kon,338000 M⁻¹ s⁻¹
